Consider one molecule from patent publication US20260166169A1, “ANTIBODY-DRUG CONJUGATE, PREPARATION METHOD AND USE THEREOF” (priority 2023, published 2026).

Series [1] concerns MUC18-positive A375 melanoma mouse xenograft model. Briefly: In vivo inhibitory effect on A375 xenograft tumor and body weight change of mice. Further details: species or system Balb/c mice. The note with it: intravenous. The method, then: Experimental Example 2: In Vivo Inhibitory Effect of A375 Xenograft Tumor and Effect Thereof on Body Weight Change of Mice
6-week-old Balb/c mice were purchased from Jiangsu GemPharmatech Co. Ltd., and each mouse was subcutaneously inoculated with 4 million A375 cells to construct a MUC18-positive A375 melanoma mouse xenograft model. […] After administration, a tumor volume was measured twice a week with a vernier caliper, and the tumor volume was calculated according to the following formula: TV=(length×width) 2/2. Since A375 cell hardly express CD20, Rituximab was used as an isotype control for 02-1 antibody at that time.

In series [2] the test system is LD1-0060-200770 human cholangiocarcinoma PDX model. Briefly: In vivo inhibitory effect on LD1-0060-200770 PDX model and body weight change. The arrangement: species or system Nu/Nu mice. The text has this:
Experimental Example 13: In Vivo Inhibitory Effect on LD1-0060-200770 Human Cholangiocarcinoma PDX Model and Effect Thereof on Body Weight Change of Mice
(§1) LD1-0060-200770 (LideBiotech CO., LTD) is a human cholangiocarcinoma patient derived xenograft model which expresses human MUC18 (H-Score=15). 6-8 weeks Nu/Nu mice were purchased from Beijing Vital River Laboratory Animal Technology Co., Ltd. Tumors of LD1-0060-200770 were sliced into about 3 mm×3 mm×3 mm fragments and implanted subcutaneously into the flank of mice. On day 42 (mean tumor size ˜155 mm^3) following implanting, 02-1-LP1 prepared in Example 5 was intravenously injected. The administration dose was 10 mpk, once a week for two times (QW×2). After administration, a tumor volume was measured twice a week with a vernier caliper, and the tumor volume was calculated according to the following formula: TV=(length×width)^2/2.

Series [3] deals with LD1-0016-390730 human esophagus adenocarcinoma PDX model. Briefly: In vivo inhibitory effect on LD1-0016-390730 PDX model and body weight change. The arrangement: species or system Nu/Nu mice.
Text: Experimental Example 10: In Vivo Inhibitory Effect on LD1-0016-390730 Human Esophagus Adenocarcinoma PDX Model and Effect Thereof on Body Weight Change of Mice
as §1, with “LD1-0016-390730” for “LD1-0060-200770”, “esophagus adenocarcinoma” for “cholangiocarcinoma”, “(H-Score=115).” for “(H-Score=15).”, “45” for “42”, “˜191” for “˜155”

For series [4], the system named is LD1-2009-362263 human triple negative breast cancer PDX model. Briefly: In vivo inhibitory effect on LD1-2009-362263 PDX model and body weight change. The arrangement: species or system Nu/Nu mice.
Text: Experimental Example 12: In Vivo Inhibitory Effect on LD1-2009-362263 Human Triple Negative Breast Cancer PDX Model and Effect Thereof on Body Weight Change of Mice
as §1, with “LD1-2009-362263” for “LD1-0060-200770”, “triple negative breast cancer” for “cholangiocarcinoma”, “(H-Score=240).” for “(H-Score=15).”, “49” for “42”, “˜152” for “˜155”

The test system of the next series is A375 cell. Briefly: Endocytosis of 02-1-LP1 by tumor cells overexpressing MUC18. It is filed as cell-based. The note with it: 50 μg/mL, 37° C., flow cytometry at 0-8 hours, FIG. 17. Here is the method:
(§2) Experimental Example 1: Endocytosis of 02-1-LP1 by Tumor Cells of Overexpressing MUC18
(§3) 50 μg/mL 02-1-LP1 was combined with A375 cell (purchased from Shanghai Institute for Biological Sciences, Chinese Academy of Sciences), HMVII cell (purchased from Center for Type Culture Collection, Biovector NTCC), SK-MEL-2 cell (purchased from Shanghai Xunqing Biotechnology Co., Ltd.), and GAK cell (purchased from Center for Type Culture Collection, Biovector NTCC), respectively. After washing off excess ADC, cells were cultured in an incubator of 37° C. At 0, 0.5, 1, 2, 4, and 8 hours, a median fluorescence intensity (MFI) was measured by flow cytometry.
A general note: Flow cytometry measures light scatter and fluorescence of single cells or particles in a stream.

For another series, the system named is HMVII cell. The description is as above. In kind it is cell-based. The settings on record: 50 μg/mL, 37° C., flow cytometry at 0-8 hours, FIG. 17. Here is the method: as §2, §3
A further series concerns SK-MEL-2 cell. The description is as above. It is filed as cell-based. The settings on record: 50 μg/mL, 37° C., flow cytometry at 0-8 hours, FIG. 17. Here is the method: as §2, §3
In a further series the test system is GAK cell. The series is described as above. The note with it: 50 μg/mL, 37° C., flow cytometry at 0-8 hours, FIG. 17. In kind it is cell-based. Here is the method:
as §2, §3

For series [5], the system named is Huh-7 human liver cancer CDX model. Briefly: In vivo inhibitory effect on Huh-7 CDX model and body weight change. The arrangement: species or system Balb/c nude mice. The note with it: 10 mpk intravenous. The source says: Experimental Example 8: In Vivo Inhibitory Effect on Huh-7 Human Liver Cancer CDX Model and Effect Thereof on Body Weight Change of Mice
6-week-old Balb/c nude mice were purchased from Shanghai BK/KY Biotechnology Co., Ltd. Each mouse was subcutaneously inoculated with five million Huh-7 cells (purchased from Shanghai BioGene Biotech Co., Ltd,) to obtain CDX model. On the 9th day after inoculation (an average tumor volume was about 230 mm^3), Human IgG-LP1 prepared in Comparative Example 5, and 02-1-LP1 prepared in Example 5 were intravenously injected, respectively. The administration doses were all 10 mpk, once a week for two times (QW×2). After administration, a tumor volume was measured twice a week with a vernier caliper, and the tumor volume was calculated according to the following formula: TV=(length×width)^2/2.

The nature of series [6]: Measurement of aggregates in antibody-drug conjugate by size exclusion chromatography (operation H). In kind it is physicochemical. The note with it: detection 280 nm. Background: In gel filtration, larger molecules generally elute earlier.

B1: 02-1-LP1 (conjugate)
heavy: QVQLVQSGAEVKKPGASVKVSCKASGYTFTDYNMDWVRQSPGQSLEWMGDINPNNGATLYNQNFRGRVTITRDTSASTAYMELSSLRSEDTAVYYCTRSGYDDYYALDYWGQGTTVTVSS[human IgG1 constant region left out]
light: DTQLTQSPSFLSASVGDRVTITCSASSSVGYMHWYQQKPGKAPKLLIYSTSNLASGVPSRFSGSGSGTEYTLTISSLQPEDFATYYCHQWSNYPSTFGQGTKLEIKRTVAAPSVFIFPPSDEQLKSGTASVVCLLNNFYPREAKVQWKVDNALQSGNSQESVTEQDSKDSTYSLSSTLTLSKADYEKHKVYACEVTHQGLSSPVTKSFNRGEC
With B1, the “body weight of the mice” value in series [1] (A375 xenograft mice, FIG. 18B1) was “did not significantly affect the body weight of the mice”. The “growth inhibitory effect on A375 xenograft (tumor volume)” value in [1] (02-1-vc-MMAE 1.5, 3, 6 mpk, 02-1-LP1 2.5, 5 mpk, FIG. 18A1) was “caused significant elimination of tumor volume”. Besides, the “body weight of mice” value in series [2] (10 mpk intravenous, QW×2, FIG. 30B) was “little effects on the body weight of mice”; in series [3] (10 mpk intravenous, QW×2, FIG. 27B), “little effects on the body weight of mice”; in series [4] (10 mpk intravenous, QW×2, FIG. 29B) it was “little effects on the body weight of mice”; in series [5] (QW×2, FIG. 25B), “little effects on the body weight of mice”. The “tumor growth (tumor volume)” value is listed as “can effectively inhibit tumor growth” in series [2] (MUC18 H-Score=15, 10 mpk intravenous, QW×2, FIG. 30A); “can effectively inhibit tumor growth” in series [3] (MUC18 H-Score=115, 10 mpk intravenous, QW×2, FIG. 27A); “can effectively inhibit tumor growth” in series [4] (MUC18 H-Score=240, 10 mpk intravenous, QW×2, FIG. 29A); “can effectively inhibit tumor growth” in series [5] (QW×2, FIG. 25A). Moreover, the “endocytosis (median fluorescence intensity over time)” value with A375 cell, in the series on HMVII cell, in the series with SK-MEL-2 cell and with GAK cell was “can be endocytosed” in each case. The “content of the aggregates” value in [6] is 1.18%.
